From PubChem BioAssay AID588855 (National Center for Advancing Translational Sciences (NCATS), 2011)
Out of some 410,000 compounds screened, about 5,000 (1.2%) were called active. The shares of active, inactive and inconclusive entries below differ from those in the screen. Calls follow the shape of the dose curve; as a rule, active = well fitted inhibition curve with a large enough effect; inconclusive = small, poorly fitted or top-dose-only effect; inactive = no such curve, though single readings can be large or run the other way. Potencies beside an inconclusive call are fits to weak or partial responses and may not hold up.

assay: qHTS for Inhibitors of TGF-b; details: HepG2 CAGA-GFP TGF-b/SMAD3 reporter, GFP fluorescence, 18 h, TGF-beta stimulated, 500 pg/mL final; series mostly up to 46.1 µM; also: nearly all actives have a fitted effect of over 65% in size
Summary of the method: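 First, reporter cells (HEPG2 CAGA-GFP) rested 2 h at 37 degrees C. Next, compounds were pinned in and TGF-beta added to 500 pg/mL final. After 18 h, GFP was imaged per cell and summed per well.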
Potency is read from the fitted curve at half-maximal effect; tags tell the direction and shape of the fitted curve.

SMILES | Potency
OCCNc1nc(-c2ccccc2)c2cc(Cl)ccc2n1 | inactive
CCN1CCN(c2nc(-c3ccccc3)nc3ccccc23)CC1 | inactive
O=C(COc1ccccc1)N1CCN(S(=O)(=O)c2ccc(Br)cc2)CC1 | inconclusive: 35.5 µM [inhibitor, single point]
Cc1ccccc1Cn1c(SCc2ccc(C(=O)NC3CCCC3)cc2)nc2ccncc21 | inconclusive: 0.501 µM [inhibitor, full curve, poor fit]
COc1ccc(C)cc1-n1nnnc1SCC(=O)c1ccc2c(c1)OCCO2 | inactive
CCOC(=O)c1c(C)[nH]c(C)c1S(=O)(=O)N1CCC(C(=O)Nc2ccc(C)c(Cl)c2)CC1 | inconclusive: 0.112 µM [inhibitor, full curve, poor fit]
O=C(/C(=N/N=C/c1ccc(O)c(O)c1O)c1ccccc1)c1ccccc1 | inconclusive: 35.5 µM [inhibitor, single point]
CC(=O)Nc1ccc(Nc2ncnc3c2c(-c2ccccc2)cn3-c2ccc(C)c(Cl)c2)cc1 | inconclusive: 31.6 µM [inhibitor, single point]
COc1ccc(C(=O)C(CN2CCOCC2)c2ccccc2)cc1 (configuration not stated) | inconclusive: 15.8 µM [inhibitor, single point]
COc1ccccc1NC(=O)c1c(NC(=O)c2ccco2)sc2c1CCC2 | inactive
CN1CCCC(C)(C(=O)Nc2cccc(Oc3ccccc3)c2)C1 (configuration not stated) | inconclusive: 20 µM [inhibitor, single point]
O=C(CCCN1C(=O)/C(=C/c2cccs2)SC1=S)NNC(=O)c1ccc(F)cc1 | inconclusive: 6.31 µM [inhibitor, full curve, poor fit]
CCCCCN(C(=O)NC(=O)Nc1ccccc1C)S(=O)(=O)c1ccccc1 | inconclusive: 35.5 µM [inhibitor, single point]
COc1ccc(C(=O)N2CCC(C)(C(=O)NS(=O)(=O)C3CC3)C2)cc1F (configuration not stated) | inconclusive: 5.62 µM [inhibitor, single point]
CCCC(NC(=O)C(C)N1CCN(S(=O)(=O)c2ccccc2)CC1)c1ccccc1 (configuration not stated) | inconclusive: 35.5 µM [inhibitor, single point]
NC(=S)NN=Cc1nccc2c(C(F)(F)F)cccc12 | inconclusive: 7.08 µM [inhibitor, partial curve, poor fit]
O=C(O)CCC(=O)N(Cc1cccnc1)Cc1cccc(F)c1 | inconclusive: 35.5 µM [inhibitor, partial curve, poor fit]
CCN(CC1CCCN(CCc2cccc(OC)c2)C1)C(=O)c1ccoc1 (configuration not stated) | inactive
Cc1cccc(C)c1OCC(=O)N(Cc1cccs1)C1CCS(=O)(=O)C1 (configuration not stated) | inactive
C[C@H](CO)N1C[C@H](C)[C@@H](CN(C)C(=O)Nc2ccc(C(F)(F)F)cc2)Oc2c(NC(=O)Nc3ccc4c(c3)OCO4)cccc2C1=O | inconclusive: 22.4 µM [inhibitor, single point]
O=[N+]([O-])c1cccc(-c2nc3ccc([N+](=O)[O-])cc3[nH]2)c1 | inconclusive: 12.6 µM [inhibitor, single point]

SMILES | Potency
COc1ccc(CCNC(=O)c2ccc(CS(=O)(=O)c3ccc(Br)cc3)o2)cc1OC | inconclusive: 11.2 µM [inhibitor, single point]
CC(=O)Nc1ccc(Nc2nc3ccccc3n3cnnc23)cc1 | inactive
Cc1ccc(Cc2ccccc2C(=O)O)cc1 | inconclusive: 0.562 µM [inhibitor, partial curve, poor fit]
CCN1CCN(CCCN(Cc2ccco2)C(=S)Nc2ccc(Cl)cc2)CC1 | inactive
O=c1[nH]c(CSc2nc3ccccc3[nH]2)nc2c1cnn2-c1ccccc1 | inactive
CN(CCNC(=O)Cn1c(=O)sc2ccccc21)Cc1ccccc1 | inconclusive: 8.91 µM [inhibitor, partial curve, poor fit]
Cc1cc(C(=O)N/N=C/c2ccc(C)o2)c2ccccc2n1 | inconclusive: 15.8 µM [inhibitor, single point]
CC1(C)N=C(N)N=C(N)N1c1ccc(OCC(=O)N2CCOCC2)cc1 | inactive
CN(CC(=O)N1CCN(c2ccccn2)CC1)S(=O)(=O)c1ccc2ccccc2c1 | inconclusive: 1.26 µM [inhibitor, full curve]
CCN(CC)CC(=O)Nc1sc(C)cc1C(=O)c1ccc(C)cc1 | inconclusive: 3.16 µM [inhibitor, single point]
c1ccc(Cc2nnc3sc(C4COc5ccccc5O4)nn23)cc1 (configuration not stated) | inconclusive: 6.31 µM [inhibitor, single point]
COc1cccc(CNC(=O)CCS(=O)(=O)c2ccc3c(c2)NC(=O)CS3)c1 | inactive
Cc1nc2cc(-c3ccccc3)nn2c(C)c1CCC(=O)NCc1cccc(Cl)c1 | inconclusive: 12.6 µM [inhibitor, single point]
O=C1CCC(C(=O)OCC(=O)c2c[nH]c3ccccc23)=NN1 | inconclusive: 3.55 µM [inhibitor, single point]
OCCN1CCN(CC/C=C2/c3ccccc3Sc3ccc(Cl)cc32)CC1 | inconclusive: 35.5 µM [inhibitor, single point]
O=c1c2cc(NC(=S)NCCN3CCCCCC3)ccc2nc2n1CCCCC2 | inactive
COc1ccc2[nH]c3c(c2c1)CCN1C(=O)C(CC(=O)NCc2cccc(C(F)(F)F)c2)C[C@H](C(=O)N(C(C)C)C(C)C)[C@@]31C (some centres not stated) | inconclusive: 0.891 µM [inhibitor, full curve, poor fit]
Cc1nn(Cc2c(F)c(F)c(F)c(F)c2F)c(C)c1NC(=O)c1c(-c2ccccc2)nn(-c2ccccc2)c1C | inconclusive: 3.55 µM [inhibitor, partial curve]
Cc1cc(Nc2ccc(C)c(Cl)c2)nc(N2CCOCC2)n1 | inconclusive: 25.1 µM [inhibitor, single point]
Fc1cccc(Cc2c(-c3cccc(Br)c3)nc3ccc(Br)cn23)c1 | inconclusive: 11.2 µM [inhibitor, single point]
CCOC(=O)c1scc(-c2ccc(C)cc2)c1S(=O)(=O)Nc1ccc(OC)c(Cl)c1 | inconclusive: 20 µM [inhibitor, partial curve]
